# Hit rate of the full screen: of about 310,000 compounds, about 2,200 (0.71%) showed an effect of 50% or more. The effect is printed as a negative number. Some of the results follow.
# Biological target: human ether-à-go-go-related gene (hERG) potassium channel (human, UniProt Q12809)
# Assay: primary screen, population patch clamp on CHO cells stably expressing hERG
# Chain of human ether-à-go-go-related gene (hERG) potassium channel (Q12809 whole entry, looked up): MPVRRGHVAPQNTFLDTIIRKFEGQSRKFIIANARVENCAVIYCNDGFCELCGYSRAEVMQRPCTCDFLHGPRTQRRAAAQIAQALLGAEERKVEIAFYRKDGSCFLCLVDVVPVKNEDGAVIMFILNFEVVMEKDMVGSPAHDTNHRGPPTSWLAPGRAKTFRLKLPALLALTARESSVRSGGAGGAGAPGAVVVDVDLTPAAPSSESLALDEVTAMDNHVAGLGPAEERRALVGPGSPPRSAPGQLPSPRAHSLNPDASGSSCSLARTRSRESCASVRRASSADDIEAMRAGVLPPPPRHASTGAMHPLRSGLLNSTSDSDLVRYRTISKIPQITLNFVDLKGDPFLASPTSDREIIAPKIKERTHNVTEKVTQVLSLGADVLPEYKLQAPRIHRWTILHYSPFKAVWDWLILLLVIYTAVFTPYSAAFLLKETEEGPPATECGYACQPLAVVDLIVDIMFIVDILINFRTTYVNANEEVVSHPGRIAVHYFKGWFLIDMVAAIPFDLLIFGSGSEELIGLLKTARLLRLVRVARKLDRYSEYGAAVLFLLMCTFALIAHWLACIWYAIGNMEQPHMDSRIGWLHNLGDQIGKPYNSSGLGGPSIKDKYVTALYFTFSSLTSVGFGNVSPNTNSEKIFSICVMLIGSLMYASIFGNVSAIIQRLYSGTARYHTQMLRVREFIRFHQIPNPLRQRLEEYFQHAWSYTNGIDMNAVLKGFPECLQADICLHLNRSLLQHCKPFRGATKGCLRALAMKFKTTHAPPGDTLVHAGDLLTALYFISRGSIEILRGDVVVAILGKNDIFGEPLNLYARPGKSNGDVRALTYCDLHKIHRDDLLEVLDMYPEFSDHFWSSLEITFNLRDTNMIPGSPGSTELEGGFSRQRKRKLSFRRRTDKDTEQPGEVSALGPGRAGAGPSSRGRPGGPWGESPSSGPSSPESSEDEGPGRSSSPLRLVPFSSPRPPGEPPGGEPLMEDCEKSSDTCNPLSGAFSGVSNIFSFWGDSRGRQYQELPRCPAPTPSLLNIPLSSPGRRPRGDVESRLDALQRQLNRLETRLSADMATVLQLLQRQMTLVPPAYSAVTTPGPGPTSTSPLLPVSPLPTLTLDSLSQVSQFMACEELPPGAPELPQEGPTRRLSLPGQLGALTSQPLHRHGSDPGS
row,SMILES,"hERG current change (%, negative = inhibition) at 1uM"
1,Cn1c(=O)[nH]c(=O)c2c1nc(NC1CCCC1)n2Cc1ccccc1,13.4%
2,O=C(COC(=O)CN1C(=O)C2CCCCC2C1=O)NC1CCS(=O)(=O)C1 (stereo not drawn),1.8%
3,O=C(NCC1CCCO1)c1csc2c1CCCCC2 (stereo not drawn),4.73%
4,COc1cc(NC(=O)C2CCCN2S(=O)(=O)c2ccc3c(c2)CCC(=O)N3)cc(OC)c1 (stereo not drawn),6.3%
5,Cc1ccc(NC(=O)C(C)OC(=O)Cn2cnc3ccccc3c2=O)cc1 (stereo not drawn),11.5%
6,CCOc1ccccc1CN1CCN(C2CCN(c3ccccc3F)CC2)CC1CCO (stereo not drawn),-17.5%
7,O=C(NNC(=O)c1ccccc1Br)c1ccc2nc[nH]c2c1,8.58%
8,COc1ccc(S(=O)(=O)NC(C)C(=O)NCc2ccc3c(c2)OCO3)cc1OC (stereo not drawn),11.1%
9,Cl.O=C(OCCN1CCCCC1)c1ccccc1F,0.107%
10,Cc1ccc(CNC(=O)C2CCC(=O)N2C(C)C)cc1 (stereo not drawn),17.1%
11,CCc1nc(NC(C)(C)C)c2cnn(-c3ccccc3)c2n1,0.926%
12,CCCCn1c(N(CCOC(C)=O)C(C)=O)nc2ccccc21,-1.24%
13,Cc1cc(O)c(C(=O)/C=C/c2cccc([N+](=O)[O-])c2)c(=O)o1,10.7%
14,COc1ccccc1NC(=O)Nc1nnc(Cc2ccc(F)cc2)s1,14.8%
15,COc1ccc(CCNC(=O)CCNS(=O)(=O)c2cccc(Cl)c2)cc1OC,8.06%
16,Cc1ccc(-n2c(Cc3noc4ccccc34)n[nH]c2=S)cc1,12.2%
17,CCNc1ccc(C(=O)OCC(=O)NC(=O)NCC(C)C)cc1[N+](=O)[O-],11.2%
18,CO[C@@H]1[C@@H](O[C@@H]2O[C@H](C)[C@@H](O[C@H]3C[C@@](C)(OC(=O)CC(C)C)[C@@H](O)[C@H](C)O3)[C@H](N(C)C)[C@H]2O)[C@@H](CC=O)C[C@@H](C)[C@@H](O)C=CC=CC[C@@H](C)OC(=O)C[C@H]1OC(C)=O,-3.23%
19,Cc1ccc(/C(O)=C2/C(=O)C(=O)N(c3ccccn3)C2c2ccc(F)cc2)cc1 (stereo not drawn),9.9%
20,CCCCOC(=O)c1ccc(NC(=O)c2ccc(F)cc2F)cc1,12.6%
21,CCCNC(=O)N1CCN(c2nc(C(C)C)c3c(c2C#N)CC(C)(C)OC3)CC1,8.3%
22,CC(=O)N1CCc2cc(S(=O)(=O)NCCCN3CCN(Cc4ccccc4)CC3)ccc21,-0.451%

row,SMILES,"hERG current change (%, negative = inhibition) at 1uM"
1,CN(C)c1nc(OCCNC(=O)Nc2ccccc2)nc(N2CCCCC2)n1,10.8%
2,Cn1c(=NC(=O)c2cnccn2)sc2ccccc21,10.5%
3,CCOC(=O)c1c(NC(=O)CSc2nccc(=O)[nH]2)sc(C)c1C,14.6%
4,S=C(NCCN1CCOCC1)Nc1cccc2ccccc12,14.8%
5,Cc1cccc(NC(=O)N2CCC(NC(=O)c3ccccc3C)CC2)c1,8.64%
6,OC1CN=C2CCCc3c2n(c2ccc(Cl)cc32)C1 (stereo not drawn),-35.6%
7,c1ccc(N2CCN(C3CCSC3)CC2)cc1 (stereo not drawn),3.25%
8,CCOc1ncccc1C(=O)OCC(=O)NCCc1ccccc1,12.7%
9,COc1cccc(CN2CCN(Cc3nc(-c4cccs4)oc3C)CC2CCO)c1 (stereo not drawn),-12.3%
10,CCN1CCCC1CNC(=O)Cn1nc(C)n2nc(-c3ccccc3)cc2c1=O (stereo not drawn),-3.14%
11,Cc1[nH]c(C)c(S(=O)(=O)NCc2ccc(F)cc2)c1C(=O)N1CCCC1,8.76%
12,Cc1cc(C)n(C(=O)CNC(=O)c2ccccc2Br)n1,17.6%
13,CSc1cccc(NC(=O)c2cnccn2)c1,7.12%
14,Cc1ccc(S(=O)(=O)NC(=O)Nc2ccc(F)c(F)c2)cc1,11.6%
15,COCCCNC(=O)C(=O)C1C(=O)Nc2ccccc21 (stereo not drawn),11.8%
16,O=C(Nc1cc(S(=O)(=O)N2CCCCC2)ccc1Cl)c1ccc(F)cc1,-0.241%
17,COc1ccc(OCCNC(=O)C(c2ccccc2)c2ccccc2)cc1,-1.28%
18,COc1ccc(CN2CCCCC2C)cc1C (stereo not drawn),-4.24%
19,Cc1c(-c2cccc(Cl)c2)nc2ccccc2c1C(=O)N1CCC2(CC1)OCCO2,-7.58%
20,CC(C)CC(=O)N=C1SC2CS(=O)(=O)CC2N1CCc1ccccc1 (stereo not drawn),2.54%
21,O=C(CCN1CCOCC1)Nc1ccccc1,14.8%
22,COC(=O)C1=C(C(=O)OC)[C@@H]2N(C)c3ccccc3[C@@]23C[C@@H](C(=O)OC)N(C(=O)C2CCC2)C3=N1,3.59%

row,SMILES,"hERG current change (%, negative = inhibition) at 1uM"
1,CCCn1c(=O)c2c(C(F)(F)F)cc(-c3cccs3)nc2n(CCC)c1=O,7.57%
2,CCOC(=O)N1CCN(Cc2nc3c(c(=O)[nH]c(=O)n3C)n2CCCc2ccccc2)CC1,-15%
3,COn1c(SCc2cccnc2)nc2ccccc2c1=O,1.02%
4,CC(=O)N1CCc2cc(N=NC3=C(O)CCCC3=O)ccc21,9.8%
5,CCCc1nnc(NC(=O)CN2CCOCC2)s1.Cl,10.8%
6,CC(=O)NCCN=Cc1sc2ccccc2c1O,8.06%
7,Cc1cc(=O)oc2cc(OCC#N)ccc12,11.6%
8,Cc1cc(C(=O)CCC(=O)N2CCN(c3ccccc3F)CC2)c(C)s1,5.31%
9,Cc1ncc([N+](=O)[O-])n1Cc1ccc(Br)cc1,9.01%
10,O=S(=O)(F)c1ccc2nc(-c3cccc(Sc4ccccc4)c3)cc(Cl)c2c1,13.3%
11,CCCCCC(=O)Nc1cccc(C2=NOC3(C2)C[C@H](C(N)=O)N(C(=O)[C@H]2CCC(=O)N2)C3)c1 (stereo partly drawn),20.6%
12,O=C(CS(=O)(=O)c1ccccc1)NCc1ccco1,7.36%
13,O=c1c(C/C=C/c2ccccc2)c(O)ccn1Cc1ccc(Cl)cc1Cl,17.1%
14,COc1ccc(NC(=O)Nc2cc(C(=O)O)ccc2N2CC3CC(C2)c2cccc(=O)n2C3)c(OC)c1 (stereo not drawn),5.08%
15,Cc1ccc(OCCOCCN2CCCC2)c(Br)c1.O=C(O)C(=O)O,-0.528%
16,CC(=O)Nc1ccc(NC(=O)CSc2ccc3nnc(-c4ccccn4)n3n2)cc1,15.7%
17,Cc1ccnc(NC(=O)c2ccc(Cl)c(S(=O)(=O)N3CCCCC3)c2)c1,-2.43%
18,Cc1ccc(N2C(=O)N(CC(=O)Nc3ccc(C)c(C)c3[N+](=O)[O-])C(=O)C2C)cc1 (stereo not drawn),11%
19,Cn1cccc1Cc1nnc(SCC(=O)N2CCCCCC2)n1CCc1ccccc1,4.32%
20,CCc1ccccc1N(CC(=O)Nc1cccc(N(C)S(C)(=O)=O)c1)S(C)(=O)=O,11.4%
21,CCOc1ccccc1C1CC(=O)NC2=C1C(=O)CCC2 (stereo not drawn),11.1%
22,CCC1(C)CN(S(=O)(=O)OCC(Cl)(Cl)Cl)C(=O)N1 (stereo not drawn),4.55%

row,SMILES,"hERG current change (%, negative = inhibition) at 1uM"
1,CN1CCC/C1=C1/C(=O)N(c2ccccc2)N=C1NC(=O)Nc1cccc(Cl)c1,16.6%
2,C=CCCC(=O)N1CCC(Oc2cccc(C(=O)NCc3ccccn3)c2)CC1,8.78%
3,C/C=C(\C)C(=O)Nc1cccc(C2=NOC3(C2)C[C@H](C(N)=O)N(C(=O)CC#N)C3)c1 (stereo partly drawn),15.2%
4,C[C@]12CC3CC(N)(C1)C[C@@](C)(C3)C2.Cl,8.56%
5,Cc1nnn(C23CC4CC(CC(C(=O)NN)(C4)C2)C3)n1,10.2%
6,O=C(COC(=O)c1ccc(Br)cc1)NCCC1=CCCCC1,5.75%
7,Nc1nonc1-n1nnc(C(=O)N/N=C/c2cc(Br)ccc2O)c1CSC1=NCCS1,14.7%
8,O=C(Nc1ccc(F)c(Cl)c1)C1CC(=O)n2c(nc3ccccc32)N1 (stereo not drawn),9.65%
9,CCOc1cccc(N2C(=O)CC(NCc3ccc(S(N)(=O)=O)cc3)C2=O)c1 (stereo not drawn),12.5%
10,CCN1/C(=C/C(=O)c2ccco2)Sc2ccccc21,6.78%
11,CSCC[C@H](NS(=O)(=O)c1ccc(C)cc1)C(=O)N1CCC(C(=O)N[C@@H](Cc2ccccc2)C(=O)O)CC1,10.6%
12,CCN(CC(=O)Nc1cccc(OC)c1)C(=O)c1cnc(Cl)c(Cl)c1,18.3%
13,CC(=O)c1cc2c(cc1NC(=O)c1c(-c3ccccc3)noc1C)OCO2,11.2%
14,Cc1cccc(OCC(=O)Nc2nnc(S(=O)(=O)N3CCC(C)CC3)s2)c1,5.25%
15,Cc1cc(-c2nc(C)c(C(=O)NNC(=O)NC(C)C)s2)no1,6.74%
16,COc1ccc2ccccc2c1C1NC(=O)NC(C)=C1[N+](=O)[O-] (stereo not drawn),-0.897%
17,CCOc1ccc(N2C(=O)CC(N(CCc3ccc(OC)cc3)C(=O)/C=C/C(=O)O)C2=O)cc1 (stereo not drawn),21.8%
18,COc1ccc(NC(=O)CSc2nnc(-c3ccccc3)n2Cc2ccco2)c(OC)c1,9.82%
19,CC(C)(C)NC(=O)COc1ccccc1C#N,20.9%
20,CCOC(=O)c1cc(=O)n(Cc2ccccc2C)c2ccccc12,-3.87%
21,O=C(O)c1cc2ccc3ccccc3c2[nH]1,5.32%
